Results are given in words; binding and its absence hold for the method and conditions named. Binding seen in cells or lysates may run through a third protein. Some binding calls cover weakened binding; strength is not graded here. For part of these data: Sequences can lack the tags named with a protein.
Tests used:
[1] = molecular target: T1, REP1-FLAG mutant (hREP1-S473X, 1-472 a.a.) (human) (UniProt P24386); assay: co-IP; HEK293 cells co-transfected with FOXO3-HA and REP1-FLAG (WT or Mut), 48 h; NP40 lysis buffer (50 mM Tris-HCl pH 8.0, 5 mM EDTA, 150 mM NaCl, 1% NP-40); IP with anti-HA or anti-FLAG for 16 h; western blot with anti-FOXO3 and anti-REP1
T1 sequence: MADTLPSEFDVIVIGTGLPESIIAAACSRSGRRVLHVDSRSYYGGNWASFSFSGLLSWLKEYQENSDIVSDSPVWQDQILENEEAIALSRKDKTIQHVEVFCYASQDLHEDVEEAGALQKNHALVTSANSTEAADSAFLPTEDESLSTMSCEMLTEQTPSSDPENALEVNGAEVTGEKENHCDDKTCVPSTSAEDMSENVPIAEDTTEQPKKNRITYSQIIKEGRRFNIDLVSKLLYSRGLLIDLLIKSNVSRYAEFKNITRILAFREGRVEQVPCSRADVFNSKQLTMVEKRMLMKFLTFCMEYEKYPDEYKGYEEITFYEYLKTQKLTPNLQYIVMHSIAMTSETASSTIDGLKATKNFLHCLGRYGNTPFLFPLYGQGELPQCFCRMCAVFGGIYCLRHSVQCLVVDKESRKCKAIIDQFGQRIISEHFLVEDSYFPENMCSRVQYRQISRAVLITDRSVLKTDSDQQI

Sequences of proteins named here, by UniProt entry; tags and fusion partners are left off. A change or cut given only in a name is not applied to a line headed by its entry.
UniProt O43524: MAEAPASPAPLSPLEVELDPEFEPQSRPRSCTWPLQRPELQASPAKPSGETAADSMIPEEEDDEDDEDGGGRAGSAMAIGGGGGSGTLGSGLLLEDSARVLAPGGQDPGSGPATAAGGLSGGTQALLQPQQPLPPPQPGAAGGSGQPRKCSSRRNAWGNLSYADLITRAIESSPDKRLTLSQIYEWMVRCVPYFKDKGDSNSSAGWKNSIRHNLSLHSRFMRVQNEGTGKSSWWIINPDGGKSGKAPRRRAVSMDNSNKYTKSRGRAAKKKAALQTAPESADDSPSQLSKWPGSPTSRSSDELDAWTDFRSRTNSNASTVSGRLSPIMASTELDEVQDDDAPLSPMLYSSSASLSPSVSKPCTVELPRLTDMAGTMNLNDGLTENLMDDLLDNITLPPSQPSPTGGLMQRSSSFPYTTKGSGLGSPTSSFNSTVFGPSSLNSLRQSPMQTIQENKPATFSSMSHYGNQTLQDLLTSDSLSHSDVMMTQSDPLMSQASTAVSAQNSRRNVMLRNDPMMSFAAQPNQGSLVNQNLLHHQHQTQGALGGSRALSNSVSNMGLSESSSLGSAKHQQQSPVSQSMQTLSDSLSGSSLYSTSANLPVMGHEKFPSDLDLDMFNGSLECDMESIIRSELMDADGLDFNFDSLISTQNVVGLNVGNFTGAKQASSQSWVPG

[2] = molecular target: T2, REP1-FLAG wild type (hREP1-full, 1-653 a.a.) (human) (UniProt P24386); assay: as above
T2 sequence: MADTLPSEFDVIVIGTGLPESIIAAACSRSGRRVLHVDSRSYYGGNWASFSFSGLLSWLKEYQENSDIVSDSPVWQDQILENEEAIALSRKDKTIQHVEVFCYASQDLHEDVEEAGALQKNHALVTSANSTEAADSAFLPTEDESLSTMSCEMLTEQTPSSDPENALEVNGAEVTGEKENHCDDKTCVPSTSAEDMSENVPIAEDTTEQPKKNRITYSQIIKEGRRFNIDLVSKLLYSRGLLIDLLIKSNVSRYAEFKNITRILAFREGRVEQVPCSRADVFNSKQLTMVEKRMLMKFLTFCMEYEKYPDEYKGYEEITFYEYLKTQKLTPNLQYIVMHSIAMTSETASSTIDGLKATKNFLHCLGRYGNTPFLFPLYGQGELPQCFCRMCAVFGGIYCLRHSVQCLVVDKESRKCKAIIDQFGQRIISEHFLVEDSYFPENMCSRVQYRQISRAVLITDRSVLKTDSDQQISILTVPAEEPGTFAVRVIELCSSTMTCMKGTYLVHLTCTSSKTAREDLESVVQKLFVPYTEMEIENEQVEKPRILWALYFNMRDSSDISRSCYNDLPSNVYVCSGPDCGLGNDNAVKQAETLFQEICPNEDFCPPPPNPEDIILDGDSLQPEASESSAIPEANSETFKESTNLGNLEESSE

[3] = molecular target: T3, endogenous REP1 (HCT116 cells) (human (endogenous in HCT116)) (UniProt P24386); assay: co-IP; endogenous proteins in HCT116 lysate (NP40 lysis buffer); IP with anti-FOXO3, anti-REP1 or rabbit IgG for 16 h; western blot
T3 sequence: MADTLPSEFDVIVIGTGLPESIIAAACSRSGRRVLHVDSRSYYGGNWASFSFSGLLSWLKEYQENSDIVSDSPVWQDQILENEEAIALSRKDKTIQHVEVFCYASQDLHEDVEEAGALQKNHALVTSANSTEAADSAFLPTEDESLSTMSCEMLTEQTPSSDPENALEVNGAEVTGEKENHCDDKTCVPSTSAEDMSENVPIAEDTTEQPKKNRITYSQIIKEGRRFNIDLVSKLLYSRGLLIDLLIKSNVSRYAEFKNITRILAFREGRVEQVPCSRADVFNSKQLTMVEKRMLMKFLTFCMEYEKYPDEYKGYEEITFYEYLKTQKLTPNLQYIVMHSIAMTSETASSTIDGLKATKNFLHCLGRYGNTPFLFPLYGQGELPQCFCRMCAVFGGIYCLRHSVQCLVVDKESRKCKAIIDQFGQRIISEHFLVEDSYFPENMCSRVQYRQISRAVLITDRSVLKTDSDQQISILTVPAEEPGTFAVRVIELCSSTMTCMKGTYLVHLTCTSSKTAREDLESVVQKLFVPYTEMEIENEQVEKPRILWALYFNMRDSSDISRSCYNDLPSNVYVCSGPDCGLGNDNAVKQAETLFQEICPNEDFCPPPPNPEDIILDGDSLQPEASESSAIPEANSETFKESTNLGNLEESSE

[4] = molecular target: FOXO3-HA (full-length human FOXO3a) (human) (UniProt O43524); assay: co-IP; HEK293 cells co-transfected with FOXO3-HA and REP1-FLAG (WT or Mut), 48 h; NP40 lysis buffer (50 mM Tris-HCl pH 8.0, 5 mM EDTA, 150 mM NaCl, 1% NP-40); IP with anti-HA or anti-FLAG for 16 h; western blot with anti-FOXO3 and anti-REP1
[5] = molecular target: endogenous FOXO3 (HCT116 cells) (human (endogenous in HCT116)) (UniProt O43524); assay: co-IP; endogenous proteins in HCT116 lysate (NP40 lysis buffer); IP with anti-FOXO3, anti-REP1 or rabbit IgG for 16 h; western blot

## FOXO3-HA (full-length human FOXO3a) (from UniProt O43524-1 1-673)
[1]
  binding: no binding
[2]
  binding: binds

## endogenous FOXO3 (HCT116 cells) (from UniProt O43524 1-673)
[3]
  binding: binds

B1: REP1-FLAG wild type (hREP1-full, 1-653 a.a.) (protein, UniProt P24386 1-653)
chain: MADTLPSEFDVIVIGTGLPESIIAAACSRSGRRVLHVDSRSYYGGNWASFSFSGLLSWLKEYQENSDIVSDSPVWQDQILENEEAIALSRKDKTIQHVEVFCYASQDLHEDVEEAGALQKNHALVTSANSTEAADSAFLPTEDESLSTMSCEMLTEQTPSSDPENALEVNGAEVTGEKENHCDDKTCVPSTSAEDMSENVPIAEDTTEQPKKNRITYSQIIKEGRRFNIDLVSKLLYSRGLLIDLLIKSNVSRYAEFKNITRILAFREGRVEQVPCSRADVFNSKQLTMVEKRMLMKFLTFCMEYEKYPDEYKGYEEITFYEYLKTQKLTPNLQYIVMHSIAMTSETASSTIDGLKATKNFLHCLGRYGNTPFLFPLYGQGELPQCFCRMCAVFGGIYCLRHSVQCLVVDKESRKCKAIIDQFGQRIISEHFLVEDSYFPENMCSRVQYRQISRAVLITDRSVLKTDSDQQISILTVPAEEPGTFAVRVIELCSSTMTCMKGTYLVHLTCTSSKTAREDLESVVQKLFVPYTEMEIENEQVEKPRILWALYFNMRDSSDISRSCYNDLPSNVYVCSGPDCGLGNDNAVKQAETLFQEICPNEDFCPPPPNPEDIILDGDSLQPEASESSAIPEANSETFKESTNLGNLEESSE
[4]
  binding: binds

B2: endogenous REP1 (HCT116 cells) (protein, UniProt P24386 1-653)
chain: MADTLPSEFDVIVIGTGLPESIIAAACSRSGRRVLHVDSRSYYGGNWASFSFSGLLSWLKEYQENSDIVSDSPVWQDQILENEEAIALSRKDKTIQHVEVFCYASQDLHEDVEEAGALQKNHALVTSANSTEAADSAFLPTEDESLSTMSCEMLTEQTPSSDPENALEVNGAEVTGEKENHCDDKTCVPSTSAEDMSENVPIAEDTTEQPKKNRITYSQIIKEGRRFNIDLVSKLLYSRGLLIDLLIKSNVSRYAEFKNITRILAFREGRVEQVPCSRADVFNSKQLTMVEKRMLMKFLTFCMEYEKYPDEYKGYEEITFYEYLKTQKLTPNLQYIVMHSIAMTSETASSTIDGLKATKNFLHCLGRYGNTPFLFPLYGQGELPQCFCRMCAVFGGIYCLRHSVQCLVVDKESRKCKAIIDQFGQRIISEHFLVEDSYFPENMCSRVQYRQISRAVLITDRSVLKTDSDQQISILTVPAEEPGTFAVRVIELCSSTMTCMKGTYLVHLTCTSSKTAREDLESVVQKLFVPYTEMEIENEQVEKPRILWALYFNMRDSSDISRSCYNDLPSNVYVCSGPDCGLGNDNAVKQAETLFQEICPNEDFCPPPPNPEDIILDGDSLQPEASESSAIPEANSETFKESTNLGNLEESSE
[5]
  binding: binds

B3: REP1-FLAG mutant (hREP1-S473X, 1-472 a.a.) (domain or fragment, UniProt P24386 1-472)
chain: MADTLPSEFDVIVIGTGLPESIIAAACSRSGRRVLHVDSRSYYGGNWASFSFSGLLSWLKEYQENSDIVSDSPVWQDQILENEEAIALSRKDKTIQHVEVFCYASQDLHEDVEEAGALQKNHALVTSANSTEAADSAFLPTEDESLSTMSCEMLTEQTPSSDPENALEVNGAEVTGEKENHCDDKTCVPSTSAEDMSENVPIAEDTTEQPKKNRITYSQIIKEGRRFNIDLVSKLLYSRGLLIDLLIKSNVSRYAEFKNITRILAFREGRVEQVPCSRADVFNSKQLTMVEKRMLMKFLTFCMEYEKYPDEYKGYEEITFYEYLKTQKLTPNLQYIVMHSIAMTSETASSTIDGLKATKNFLHCLGRYGNTPFLFPLYGQGELPQCFCRMCAVFGGIYCLRHSVQCLVVDKESRKCKAIIDQFGQRIISEHFLVEDSYFPENMCSRVQYRQISRAVLITDRSVLKTDSDQQI
[4]
  binding: no binding

Source: paper PMC5386371
